# In the supplement of paper PMC8728848:
# This is one part of the list.
# B1: ECA (Erythrina cristagalli), P83410 (protein)
# chain: VETISFSFSEFEPGNDNLTLQGAALITQSGVLQLTKINQNGMPAWDSTGRTLYTKPVHMWDSTTGTVASFETRFSFSIEQPYTRPLPADGLVFFMGPTKSKPAQGYGYLGVFNNSKQDNSYQTLAVEFDTFSNPWDPPQVPHIGIDVNSIRSIKTQPFQLDNGQVANVVIKYDAPSKILHVVLVYPSSGAIYTIAEIVDVKQVLPDWVDVGLSGATGAQRDAAETHDVYSWSFQASLPE
# Assays:
# Test in all cases: glycan array binding signal (z-score within array); higher = stronger binding
# Settings in all cases: glycan notation: IUPAC condensed, linker removed
# Gal3S6S(b1-4)GlcNAc = biological target: Gal3S6S(b1-4)GlcNAc
# Method in brief: (§1)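 Glycan array data came from 3228 arrays in the Consortium for Functional Glycomics database, and only arrays with an available protein sequence were kept. Glycan names were put into IUPAC-condensed notation, and columns mapping to the same glycan were averaged. The binding signal is a within-array Z-score, averaged across arrays of one protein sequence run at different concentrations or buffers and across linkers. A negative Z-score can be read as non-binding.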
# Gal3S6S(b1-4)GlcNAc6S = biological target: Gal3S6S(b1-4)GlcNAc6S
# Method in brief: as §1
# Gal4S(b1-4)GlcNAc = biological target: Gal4S(b1-4)GlcNAc
# Method in brief: as §1
# Gal4S6S(b1-4)GlcNAc = biological target: Gal4S6S(b1-4)GlcNAc
# Method in brief: as §1
# Gal6P(b1-4)GlcNAc = biological target: Gal6P(b1-4)GlcNAc
# Method in brief: as §1
# Gal6S(b1-3)GlcNAc = biological target: Gal6S(b1-3)GlcNAc
# Method in brief: as §1
# Gal6S(b1-3)GlcNAc6S = biological target: Gal6S(b1-3)GlcNAc6S
# Method in brief: as §1
# Gal6S(b1-4)Glc = biological target: Gal6S(b1-4)Glc
# Method in brief: as §1
# Gal6S(b1-4)Glc6S = biological target: Gal6S(b1-4)Glc6S
# Method in brief: as §1
# Gal6S(b1-4)GlcNAc = biological target: Gal6S(b1-4)GlcNAc
# Method in brief: as §1
# Gal6S(b1-4)GlcNAc6S = biological target: Gal6S(b1-4)GlcNAc6S
# Method in brief: as §1
# GalNAc(a1-3)Gal = biological target: GalNAc(a1-3)Gal
# Method in brief: as §1
# GalNAc(a1-3)GalNAc = biological target: GalNAc(a1-3)GalNAc
# Method in brief: as §1
# [1] = biological target: GalNAc(a1-3)GalNAc(a1-3)Gal(a1-4)Gal(b1-4)GlcNAc
# Method in brief: as §1
# [2] = biological target: GalNAc(a1-3)GalNAc(b1-3)Gal(a1-4)Gal(b1-4)Glc
# Method in brief: as §1
# GalNAc(b1-3)Gal = biological target: GalNAc(b1-3)Gal
# Method in brief: as §1
# [3] = biological target: GalNAc(b1-3)Gal(a1-4)Gal(b1-4)GlcNAc
# Method in brief: as §1
# [4] = biological target: GalNAc(b1-3)Gal(a1-4)Gal(b1-4)GlcNAc(b1-3)Gal(b1-4)Glc
# Method in brief: as §1
# [5] = biological target: GalNAc(b1-3)Gal(a1-6)Gal(b1-4)Glc
# Method in brief: as §1
# GalNAc(b1-3)GalNAc = biological target: GalNAc(b1-3)GalNAc
# Method in brief: as §1
# GalNAc(b1-3)GlcNAc = biological target: GalNAc(b1-3)GlcNAc
# Method in brief: as §1
# GalNAc(b1-4)Gal(b1-4)Glc = biological target: GalNAc(b1-4)Gal(b1-4)Glc
# Method in brief: as §1
# GalNAc(b1-4)GlcNAc = biological target: GalNAc(b1-4)GlcNAc
# Method in brief: as §1
# [6] = biological target: GalNAc(b1-4)GlcNAc(b1-2)Man
# Method in brief: as §1
# [7] = biological target: GalNAc(b1-4)GlcNAc(b1-2)Man(a1-3)[GalNAc(b1-4)GlcNAc(b1-2)Man(a1-6)]Man(b1-4)GlcNAc(b1-4)GlcNAc
# Method in brief: as §1
# [8] = biological target: GalNAc(b1-4)GlcNAc(b1-3)GalNAc(b1-4)GlcNAc
# Method in brief: as §1
# GalNAc(b1-4)GlcNAc6S = biological target: GalNAc(b1-4)GlcNAc6S
# Method in brief: as §1
# GalNAc(b1-6)GalNAc = biological target: GalNAc(b1-6)GalNAc
# Method in brief: as §1
# GalNAc3S(b1-4)GlcNAc = biological target: GalNAc3S(b1-4)GlcNAc
# Method in brief: as §1
# GalNAc3S(b1-4)GlcNAc3S = biological target: GalNAc3S(b1-4)GlcNAc3S
# Method in brief: as §1
# [9] = biological target: GalNAc3S(b1-4)[Fuc(a1-3)]GlcNAc
# Method in brief: as §1
# GalNAc4S6S(b1-4)GlcNAc = biological target: GalNAc4S6S(b1-4)GlcNAc
# Method in brief: as §1
# GalNAc6S(b1-4)GlcNAc = biological target: GalNAc6S(b1-4)GlcNAc
# Method in brief: as §1
# Glc(a1-4)Glc = biological target: Glc(a1-4)Glc
# Method in brief: as §1
# [10] = biological target: Glc(a1-4)Glc(a1-4)Glc(a1-4)Glc
# Method in brief: as §1
# Glc(a1-6)Glc(a1-6)Glc = biological target: Glc(a1-6)Glc(a1-6)Glc
# Method in brief: as §1
# [11] = biological target: Glc(a1-6)Glc(a1-6)Glc(a1-6)Glc
# Method in brief: as §1
# Glc(b1-4)Glc = biological target: Glc(b1-4)Glc
# Method in brief: as §1
# Glc(b1-6)Glc = biological target: Glc(b1-6)Glc
# Method in brief: as §1
# GlcA(b1-3)Gal = biological target: GlcA(b1-3)Gal
# Method in brief: as §1
# GlcA(b1-3)GlcNAc = biological target: GlcA(b1-3)GlcNAc
# Method in brief: as §1
# GlcA(b1-6)Gal = biological target: GlcA(b1-6)Gal
# Method in brief: as §1
# [12] = biological target: GlcA3S(b1-3)Gal(b1-4)GlcNAc(b1-2)Man
# Method in brief: as §1
# [13] = biological target: GlcA3S(b1-3)Gal(b1-4)GlcNAc(b1-3)Gal(b1-4)Glc
# Method in brief: as §1
# [14] = biological target: GlcNAc(a1-3)Gal(b1-4)GlcNAc
# Method in brief: as §1
binder,measurement,setting,value
B1,glycan array binding signal (z-score),Gal3S6S(b1-4)GlcNAc,-0.133
same,glycan array binding signal (z-score),Gal3S6S(b1-4)GlcNAc6S,-0.076
same,glycan array binding signal (z-score),Gal4S(b1-4)GlcNAc,-0.079
same,glycan array binding signal (z-score),Gal4S6S(b1-4)GlcNAc,-0.3
same,glycan array binding signal (z-score),Gal6P(b1-4)GlcNAc,-1.57
same,glycan array binding signal (z-score),Gal6S(b1-3)GlcNAc,-0.456
same,glycan array binding signal (z-score),Gal6S(b1-3)GlcNAc6S,-0.604
same,glycan array binding signal (z-score),Gal6S(b1-4)Glc,-0.291
same,glycan array binding signal (z-score),Gal6S(b1-4)Glc6S,-0.209
same,glycan array binding signal (z-score),Gal6S(b1-4)GlcNAc,-0.323
same,glycan array binding signal (z-score),Gal6S(b1-4)GlcNAc6S,-0.474
same,glycan array binding signal (z-score),GalNAc(a1-3)Gal,-0.255
same,glycan array binding signal (z-score),GalNAc(a1-3)GalNAc,-0.186
same,glycan array binding signal (z-score),[1],-0.554
same,glycan array binding signal (z-score),[2],-0.535
same,glycan array binding signal (z-score),GalNAc(b1-3)Gal,-0.272
same,glycan array binding signal (z-score),[3],-0.08
same,glycan array binding signal (z-score),[4],-0.322
same,glycan array binding signal (z-score),[5],-0.175
same,glycan array binding signal (z-score),GalNAc(b1-3)GalNAc,-0.235
same,glycan array binding signal (z-score),GalNAc(b1-3)GlcNAc,-0.668
same,glycan array binding signal (z-score),GalNAc(b1-4)Gal(b1-4)Glc,-0.179
same,glycan array binding signal (z-score),GalNAc(b1-4)GlcNAc,1.84
same,glycan array binding signal (z-score),[6],-0.413
same,glycan array binding signal (z-score),[7],1.35
same,glycan array binding signal (z-score),[8],-0.593
same,glycan array binding signal (z-score),GalNAc(b1-4)GlcNAc6S,0.558
same,glycan array binding signal (z-score),GalNAc(b1-6)GalNAc,-0.391
same,glycan array binding signal (z-score),GalNAc3S(b1-4)GlcNAc,-0.441
same,glycan array binding signal (z-score),GalNAc3S(b1-4)GlcNAc3S,-0.509
same,glycan array binding signal (z-score),[9],-0.091
same,glycan array binding signal (z-score),GalNAc4S6S(b1-4)GlcNAc,-0.29
same,glycan array binding signal (z-score),GalNAc6S(b1-4)GlcNAc,-0.415
same,glycan array binding signal (z-score),Glc(a1-4)Glc,-0.148
same,glycan array binding signal (z-score),[10],0.632
same,glycan array binding signal (z-score),Glc(a1-6)Glc(a1-6)Glc,-0.211
same,glycan array binding signal (z-score),[11],0.182
same,glycan array binding signal (z-score),Glc(b1-4)Glc,-0.272
same,glycan array binding signal (z-score),Glc(b1-6)Glc,-0.224
same,glycan array binding signal (z-score),GlcA(b1-3)Gal,-0.186
same,glycan array binding signal (z-score),GlcA(b1-3)GlcNAc,-0.397
same,glycan array binding signal (z-score),GlcA(b1-6)Gal,-0.166
same,glycan array binding signal (z-score),[12],-0.497
same,glycan array binding signal (z-score),[13],-0.186
same,glycan array binding signal (z-score),[14],-0.314
